The values that follow come from the supplement of paper PMC11166567.

SMILES strings stand for the structures. The list shows a part of the results.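 The calls were made as follows: active = permutation test q below 0.05 after Benjamini-Hochberg correction; inactive = q of 0.05 or more.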

The test system of assay [1] is A549. Kind of assay: mean average precision of replicate retrieval against DMSO controls (Cell Painting phenotypic activity) (fraction (0-1)); higher = stronger, more reproducible morphological phenotype distinct from DMSO; extreme values may be limits of the assay. Conditions: 5 µM.
Assay [2] has as its system U2OS. The assay is described as above. Conditions: 5 µM.
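Also: cosine similarity of well-level aggregated Cell Painting profiles ranks each compound's replicate wells against DMSO wells, four replicate plates, significance from 100,000 rank shuffles.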

Take `Cc1oncc1C(=O)Nc1ccc(C(F)(F)F)cc1`: the mean average precision is active: 0.578 in assay [1] (24 h), active: 1 in assay [1] (48 h), inactive: 0.291 in assay [2] (24 h) and inactive: 0.195 in assay [2] (48 h).
For `O=C(c1ccc(Cl)cc1)N(Cc1ccccc1)C1CCCCC1` the same measures were active: 0.665, active: 0.534, active: 0.677 and active: 0.353.
Regarding `NC(CO)(CO)CO`, the mean average precision is inactive: 0.279 in assay [1] (24 h), active: 0.494 in assay [1] (48 h), active: 0.409 in assay [2] (24 h) and inactive: 0.195 in assay [2] (48 h).
Turning to `OC[C@H]1O[C@@H](Oc2cc(O)cc(/C=C/c3ccc(O)cc3)c2)[C@H](O)[C@@H](O)[C@@H]1O`, the mean average precision in assay [1] (24 h) was active: 1; in assay [1] (48 h) it was active: 1; in assay [2] (24 h) it was active: 1; in assay [2] (48 h), active: 0.669.
Regarding `c1cc(-c2cnn3cc(-c4ccc(N5CCNCC5)cc4)cnc23)c2cccnc2c1`, the mean average precision in assay [1] (24 h) was active: 0.607; in assay [1] (48 h) it was active: 1; in assay [2] (24 h), active: 0.958; in assay [2] (48 h), active: 1.
With `CCOC(=O)[C@H](C)C[C@@H](Cc1ccc(-c2ccccc2)cc1)NC(=O)CCC(=O)O`, the mean average precision is inactive: 0.126 in assay [1] (24 h), active: 0.451 in assay [1] (48 h), inactive: 0.183 in assay [2] (24 h) and inactive: 0.0874 in assay [2] (48 h).
`N#CC1(c2ccc(NC(=O)c3cccnc3NCc3ccncc3)cc2)CCCC1`: the mean average precision in assay [1] (24 h) was active: 0.925; in assay [1] (48 h), active: 1; in assay [2] (24 h), active: 0.622; in assay [2] (48 h), active: 0.476.
For `CCCCc1nc(-c2ccc(OCCCN(CC)CC)cc2)cn1-c1ccc(Oc2ccc(Cl)cc2)cc1` the same measures were active: 1, active: 1, active: 1 and active: 1.
`CCCCCCCCCCCCCCCCOc1nc2ccc(C)cc2c(=O)o1`: the mean average precision in assay [1] (24 h) is inactive: 0.263; in assay [1] (48 h), active: 0.322; in assay [2] (24 h) it was inactive: 0.0875; in assay [2] (48 h), inactive: 0.0714.
